Over roughly 110,000 compounds, “z-score” has its median near -0.1; the highest 2% begin near 2. This is one part of the list.
These compounds were tested against Metabotropic glutamate receptor 8 (Rattus norvegicus) (UniProt P70579) (assay: mGluR8 Gi/Go-coupled signaling modulation – cell-based, rat, thallium flux, HTS, primary screen (AID 488969)). Conditions: HEK293 rat mGluR8, GIRK (G protein-gated inwardly rectifying potassium channel) thallium flux, FluoZin2; at 10 µM; stronger effect = higher value; submaximal glutamate (EC20) added with thallium.
UniProt P70579, sequence (P70579 whole entry, looked up): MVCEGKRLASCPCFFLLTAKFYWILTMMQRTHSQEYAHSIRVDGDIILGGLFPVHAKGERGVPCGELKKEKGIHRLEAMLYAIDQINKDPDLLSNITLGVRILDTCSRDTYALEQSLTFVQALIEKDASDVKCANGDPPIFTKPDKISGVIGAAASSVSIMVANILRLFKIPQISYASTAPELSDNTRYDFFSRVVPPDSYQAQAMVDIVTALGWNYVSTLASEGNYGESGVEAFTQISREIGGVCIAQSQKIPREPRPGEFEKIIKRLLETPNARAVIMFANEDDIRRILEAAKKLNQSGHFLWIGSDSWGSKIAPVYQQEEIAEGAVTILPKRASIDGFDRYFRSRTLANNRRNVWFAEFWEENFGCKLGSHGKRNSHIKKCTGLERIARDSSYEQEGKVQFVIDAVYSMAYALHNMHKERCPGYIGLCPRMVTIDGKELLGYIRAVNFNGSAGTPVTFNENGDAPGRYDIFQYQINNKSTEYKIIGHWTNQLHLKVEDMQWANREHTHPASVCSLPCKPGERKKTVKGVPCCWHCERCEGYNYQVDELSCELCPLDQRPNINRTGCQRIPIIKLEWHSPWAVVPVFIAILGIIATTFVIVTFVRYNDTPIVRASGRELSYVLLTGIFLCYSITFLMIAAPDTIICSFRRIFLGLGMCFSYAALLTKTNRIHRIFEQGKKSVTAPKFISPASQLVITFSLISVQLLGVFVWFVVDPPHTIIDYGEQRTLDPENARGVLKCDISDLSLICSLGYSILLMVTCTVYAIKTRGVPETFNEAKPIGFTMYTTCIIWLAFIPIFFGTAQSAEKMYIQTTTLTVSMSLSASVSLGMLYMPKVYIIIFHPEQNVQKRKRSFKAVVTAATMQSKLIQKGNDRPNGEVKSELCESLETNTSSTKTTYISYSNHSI

Question: How did the z-score turn out when `CCCc1cc(C(=O)NCc2cccs2)no1` was run?
Answer: 0.268

Question: For `O=C(c1cc2sccc2n1Cc1ccc(F)cc1)N1CCc2ccccc21`, which z-score is on record?
Answer: -0.13

Question: How did the z-score turn out when `Cc1cc(OCC(=O)N2CCCC2)cc(C)c1Cl` was run?
Answer: -0.034

Question: With `CCCCn1c(/N=C/c2cc(OC)ccc2O)nc2ccccc21` as the compound, how does the z-score read?
Answer: 0.474

Question: With `COc1cc(NC(=O)C23CC4CC(C2)CC(n2cnc([N+](=O)[O-])n2)(C4)C3)cc(OC)c1` as the compound, how does the z-score read?
Answer: -0.25

Question: `CC(C)(C)C1CCc2onc(C(=O)NC3CCCC3)c2C1` (configuration not stated) was tested. Which z-score did it give?
Answer: -0.19

Question: Which z-score does the source give for `Cc1ccc(N=Cc2c(O)n(-c3nccs3)c(=O)c3ccccc23)c(C)c1` here?
Answer: -0.933

Question: For `Cc1ccc(NC(=S)Nc2ccc(Br)cc2)cc1`, which z-score is on record?
Answer: -0.17

Question: With `CCc1nnc(NC(=O)CSc2nc3cc4c(cc3cc2CC)OCCO4)s1` as the compound, how does the z-score read?
Answer: -0.463

Question: For `COc1cc(S(=O)(=O)NC2CCCCC2)ccc1Cl`, which z-score is on record?
Answer: -0.00578

Question: `C[C@H](NC(=O)NCc1cccs1)C(=O)O` was tested. Which z-score did it give?
Answer: 0.036

Question: Which z-score does the source give for `O=C(CSc1nnc(CNC(=O)c2ccccc2F)o1)Nc1ccc2c(c1)OCCO2` here?
Answer: -0.184

Question: For `O=C1C(Cl)=C(N2CCCCC2)C(=O)C(Cl)=C1c1cnc(N2CCCCC2)s1`, which z-score is on record?
Answer: 0.133

Question: With `CCN(CC)c1ccc(/C=C(/C#N)c2nc3ccc(C)cc3[nH]2)c(OC(C)C)c1` as the compound, how does the z-score read?
Answer: -0.63

Question: With `O=C(COC(=O)COc1ccccc1Cc1ccccc1)Nc1cccnc1Cl` as the compound, how does the z-score read?
Answer: -0.941

Question: How did the z-score turn out when `CC(=C/c1ccccc1)/C=N/NC(=O)c1ccc2nc[nH]c2c1` was run?
Answer: 0.107

Question: For `COc1ccc(C(=O)NC2CCCCCC2)cc1S(=O)(=O)N1CCCc2ccccc21`, which z-score is on record?
Answer: -0.00531

Question: `Cc1ccc(C(=O)N2CCOCC2)cc1S(=O)(=O)Nc1cccc(C)c1C` was tested. Which z-score did it give?
Answer: 0.356

Question: For `O=C(CN(CCc1ccccc1)C(=O)CNS(=O)(=O)c1ccccc1)NCC1CCCO1` (configuration not stated), which z-score is on record?
Answer: -0.228

Question: How did the z-score turn out when `CCOC(=O)C1Cc2c([nH]c3ccccc23)C(C)N1` (configuration not stated) was run?
Answer: -0.295

Question: For `CCCOc1ccc(Oc2cc(C)nc(SC)n2)nn1`, which z-score is on record?
Answer: 0.217

Question: With `O=c1c2ccccc2c(-c2ccccc2)nn1-c1cc(Cl)ccc1[N+](=O)[O-]` as the compound, how does the z-score read?
Answer: -0.343

Question: How did the z-score turn out when `COc1ccc(CCNC(=O)CCC(=O)Nc2nnc(C(C)C)s2)cc1OC` was run?
Answer: -0.334

Question: For `O=C(CSc1nnc(CN2CCOCC2)n1-c1ccc(Cl)cc1)N1CCc2ccccc21`, which z-score is on record?
Answer: -0.227

Question: How did the z-score turn out when `COCCNS(=O)(=O)c1ccc(F)c(OC)c1` was run?
Answer: 0.457

Question: Which z-score does the source give for `COc1cc(NC(=O)c2ccc3c(c2)OCO3)ccc1NC(=O)c1ccco1` here?
Answer: 0.0386

Question: How did the z-score turn out when `Cc1c(SCCO)c(=O)[nH]c2cc3c(cc12)OCO3` was run?
Answer: 0.456

Question: Which z-score does the source give for `Cc1ccc2oc(C(Cl)(Cl)Cl)cc(=O)c2c1` here?
Answer: 0.0333

Question: For `Clc1ccc(Nc2nc3ccccc3n3nnnc23)cc1`, which z-score is on record?
Answer: -0.133

Question: With `CC1CCN(CC(=O)Nc2ccccc2C#N)CC1` as the compound, how does the z-score read?
Answer: 0.0437

Question: How did the z-score turn out when `CN1CCN(Cc2nc3ccccc3c(=O)n2Cc2nc(-c3ccc4ccccc4c3)cs2)CC1` was run?
Answer: -2.27

Question: Which z-score does the source give for `O=C(Oc1ccc(-c2cnc3ccccc3n2)cc1)c1ccc(Cl)c([N+](=O)[O-])c1` here?
Answer: -1.6

Question: Which z-score does the source give for `Brc1ccc(CN2CCSCC2)cc1` here?
Answer: -0.247

Question: With `CCCCCOC(=O)CSc1nnc(-c2ccccc2)c(=O)[nH]1` as the compound, how does the z-score read?
Answer: -0.0773

Question: `Cc1cccc(-n2c(N)cc(=O)nc2SCC(=O)Nc2nnc(CC(C)C)s2)c1` was tested. Which z-score did it give?
Answer: 0.444

Question: For `O=C(/C=C/c1ccc([N+](=O)[O-])cc1)NCCSc1ccccc1`, which z-score is on record?
Answer: -0.281

Question: `CC(C)NC(=O)NC1C2CC3CC(C2)CC1C3` (configuration not stated) was tested. Which z-score did it give?
Answer: -0.143

Question: For `O=C(Cn1cc(C(=O)c2cccs2)c2ccccc21)NCc1cccs1`, which z-score is on record?
Answer: -1.78

Question: `COc1cc2c(C(=O)NCCCN3CCN(c4cccc(Cl)c4)CC3)cn(C)c(=O)c2cc1OC` was tested. Which z-score did it give?
Answer: 0.447

Question: How did the z-score turn out when `CC(=O)c1cccc(Nc2cc(C)nc3c(C)cc(C)cc23)c1` was run?
Answer: -0.663

Question: With `O=C(NCc1cccs1)c1ccncc1` as the compound, how does the z-score read?
Answer: 0.938

Question: For `O=C(CSc1ccc(-c2nc3ccccc3[nH]2)cn1)N1CCN(C(=O)c2ccco2)CC1`, which z-score is on record?
Answer: -1.08

Question: For `CCOC(=O)CSC1=C(C#N)C(c2ccccc2C)C2=C(CCCC2=O)N1` (configuration not stated), which z-score is on record?
Answer: -0.3

Question: Which z-score does the source give for `Cc1cc(OCCN2CCOCC2)ccc1[N+](=O)[O-]` here?
Answer: 0.113

Question: How did the z-score turn out when `Cc1ccc(S(=O)(=O)N(C)CC(=O)N2CCN(c3ccccn3)CC2)cc1` was run?
Answer: -0.71

Question: With `CCOC(=O)C1=C(C)OC(N)=C(C#N)C1c1cc(C)sc1C` (configuration not stated) as the compound, how does the z-score read?
Answer: 0.338

Question: `O=C1c2ccccc2CCCC12N=NCC2c1cccc2ccccc12` (configuration not stated) was tested. Which z-score did it give?
Answer: -0.185

Question: How did the z-score turn out when `COC(=O)N/N=C/c1cn(Cc2ccccc2Cl)c2ccccc12` was run?
Answer: -0.214

Question: For `CN(C(=O)C12CC3CC(CC(C3)C1)C2)C1(C)CCS(=O)(=O)C1` (configuration not stated), which z-score is on record?
Answer: -0.0678

Question: `CCOc1ccc(C(C)=O)cc1Cc1c(O)nc(N)[nH]c1=O` was tested. Which z-score did it give?
Answer: 0.0977

Question: Which z-score does the source give for `O=C(CNC(=O)c1ccccc1)NCC1COc2ccccc2O1` (configuration not stated) here?
Answer: 0.11

Question: `Cc1cc([N+](=O)[O-])nn1CCC(=O)NC1CCCCCC1` was tested. Which z-score did it give?
Answer: -0.0418

Question: With `COc1ccc(CC(=O)NCC(=O)N/N=C/c2ccc(C)o2)cc1` as the compound, how does the z-score read?
Answer: -0.191

Question: Which z-score does the source give for `Cc1nc(Nc2ccccc2)sc1-c1ccccc1` here?
Answer: -0.247

Question: How did the z-score turn out when `C=CCNc1nc(-c2sc(NC(=O)CC)nc2C)cs1` was run?
Answer: -0.995

Question: How did the z-score turn out when `CCCCOc1cccc(-c2cc(C(=O)NNC(=S)NCC)c3ccccc3n2)c1` was run?
Answer: 0.0553

Question: With `CCCN(CCC)CC(=O)NCC1(c2ccccc2)CCOCC1` as the compound, how does the z-score read?
Answer: -0.148

Question: Which z-score does the source give for `CC(=O)C(Sc1ccc2nnc(-c3ccncc3)n2n1)C(C)=O` here?
Answer: 0.0188

Question: `CCCOC(=O)c1ccc(OCC(O)CN2C(=O)NC(C)(C)C2=O)cc1` (configuration not stated) was tested. Which z-score did it give?
Answer: 0.307

Question: Which z-score does the source give for `CC(SC(=S)N1CCOCC1)C(=O)O` (configuration not stated) here?
Answer: -0.207

Question: Which z-score does the source give for `O=C(Nc1ccc(Br)cn1)c1cccc(-c2cc3ccccc3oc2=O)c1` here?
Answer: -0.0253

Question: With `CC1=CC(=C(C#N)c2nc3ccccc3s2)C=C(C)N1c1ccc(F)cc1` as the compound, how does the z-score read?
Answer: -0.153

Question: `Cc1nn(C2CCS(=O)(=O)C2)c(Cl)c1/C=C/C(=O)OCC(=O)c1cc(C)n(-c2ccc(F)cc2)c1C` (configuration not stated) was tested. Which z-score did it give?
Answer: 0.234

Question: For `COc1ccccc1N1CCN(C(=O)CN(CCc2ccccc2)S(C)(=O)=O)CC1`, which z-score is on record?
Answer: 0.0799

Question: How did the z-score turn out when `COc1cc(NS(=O)(=O)c2ccc3c(c2)oc(=O)n3C)cc(OC)c1OC` was run?
Answer: -0.711

Question: For `COc1ccccc1Oc1c(C)oc2c(CN3CCN(C)CC3)c(O)ccc2c1=O`, which z-score is on record?
Answer: -1.09

Question: How did the z-score turn out when `O=c1[nH]c(CO)nc2c1oc1ccccc12` was run?
Answer: -0.461

Question: For `O=C(NC1CCCC1)c1nc2c(nnn2Cc2ccccc2Cl)c(=O)[nH]1`, which z-score is on record?
Answer: -1.3

Question: `COc1ccc(NC(=O)C(C)NS(=O)(=O)c2ccc(NC(C)=O)cc2)cc1Cl` (configuration not stated) was tested. Which z-score did it give?
Answer: -0.0141

Question: With `O=C(O)c1ccc(CSCc2ccco2)cc1` as the compound, how does the z-score read?
Answer: 0.0339

Question: For `O=C(Cn1cc2c(n1)CCCCC2)N1CCc2ccccc2C1`, which z-score is on record?
Answer: 0.398

Question: For `O=C(Cn1c(-c2cscn2)nc2ccccc21)Nc1ccc(Cl)cc1`, which z-score is on record?
Answer: -0.942

From PubChem BioAssay AID488969 (Vanderbilt High Throughput Screening Facility, 2010)
